# The inconclusive results got no clear call from the source; some entries with a clear call stand among them for comparison. For some assays here: Where the call is inconclusive, the potency comes from a doubtful curve fit. Activity calls are given as the source filed them. Unless noted, calls come from the whole dose curve; as a rule, active = well fitted curve in the direction sought with a large enough effect; inconclusive = small, poorly fitted or top-dose-only effect, or another doubt; inactive = no such curve, though single readings can be large; an effect the other way counts as inactive or inconclusive.
# Experiments:
# [1] = target: Nuclear receptor subfamily 1 group I member 3 (Homo sapiens) (UniProt Q14994); test: Primary qHTS for antagonist of constitutive androstane receptor (CAR) against the NCATS DSHEA and TCM libraries (AID 1794836); note: potency is the fitted concentration of half-maximal effect
# Chain of UniProt Q14994 (Q14994 whole entry, looked up): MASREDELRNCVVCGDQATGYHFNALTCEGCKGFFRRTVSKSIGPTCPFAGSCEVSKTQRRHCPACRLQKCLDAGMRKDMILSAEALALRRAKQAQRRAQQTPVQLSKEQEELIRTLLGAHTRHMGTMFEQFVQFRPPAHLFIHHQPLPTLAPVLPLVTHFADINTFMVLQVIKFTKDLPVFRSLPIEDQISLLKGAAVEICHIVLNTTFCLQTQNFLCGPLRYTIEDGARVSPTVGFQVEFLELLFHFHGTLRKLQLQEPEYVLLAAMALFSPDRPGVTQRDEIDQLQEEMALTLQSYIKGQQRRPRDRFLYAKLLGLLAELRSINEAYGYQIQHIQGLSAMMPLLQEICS
# In short: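 Antagonist mode: CAR reporter luminescence (ONE-Glo) in HepG2-CYP2B6-hCAR cells stimulated with 48 uM CITCO (final) over 24 h at 37 C, compounds titrated; viability read first by CellTiter-Fluor fluorescence.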
# [2] = target: Cytochrome P450 2C19 (Homo sapiens) (UniProt P33261); test: qHTS for inhibitors of CYP2C19 against the NCATS DSHEA and TCM libraries (AID 1919974);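 note: luminescence from luciferin released by CYP2C19 oxidation of a pro-luciferin substrate; potency is the fitted concentration of half-maximal effect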
# Chain of UniProt P33261 (P33261 whole entry, looked up, canonical isoform): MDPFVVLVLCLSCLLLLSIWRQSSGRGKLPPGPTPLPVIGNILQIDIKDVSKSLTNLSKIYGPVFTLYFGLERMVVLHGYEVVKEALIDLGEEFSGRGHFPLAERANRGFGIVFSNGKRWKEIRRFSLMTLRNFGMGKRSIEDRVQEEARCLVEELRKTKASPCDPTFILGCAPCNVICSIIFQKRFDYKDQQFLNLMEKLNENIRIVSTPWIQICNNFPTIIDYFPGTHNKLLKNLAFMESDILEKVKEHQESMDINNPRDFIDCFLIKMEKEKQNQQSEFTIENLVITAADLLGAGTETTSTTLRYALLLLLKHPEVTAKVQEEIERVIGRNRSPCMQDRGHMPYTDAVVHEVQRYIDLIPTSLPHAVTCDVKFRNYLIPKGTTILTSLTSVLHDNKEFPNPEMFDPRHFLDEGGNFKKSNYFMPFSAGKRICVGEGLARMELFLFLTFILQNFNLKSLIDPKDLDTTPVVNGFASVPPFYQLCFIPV
# In short: (§1)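 Each CYP isoform and its pro-luciferin substrate, at isoform-specific final concentrations, were preincubated 15 min at RT with substances. NADPH regeneration solution (1x) started a 30-45 min reaction, and P450-Glo luminescence was read.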
# [3] = target: Nuclear receptor subfamily 1 group I member 2 (Homo sapiens) (UniProt O75469); test: Dual reporter qHTS for agonist of Pregnane X Receptor (hPXR) against the NCATS DSHEA and TCM libraries: Luminescence readout (AID 1920059); note: potency is the fitted concentration of half-maximal effect
# Chain of UniProt O75469 (O75469 whole entry, looked up): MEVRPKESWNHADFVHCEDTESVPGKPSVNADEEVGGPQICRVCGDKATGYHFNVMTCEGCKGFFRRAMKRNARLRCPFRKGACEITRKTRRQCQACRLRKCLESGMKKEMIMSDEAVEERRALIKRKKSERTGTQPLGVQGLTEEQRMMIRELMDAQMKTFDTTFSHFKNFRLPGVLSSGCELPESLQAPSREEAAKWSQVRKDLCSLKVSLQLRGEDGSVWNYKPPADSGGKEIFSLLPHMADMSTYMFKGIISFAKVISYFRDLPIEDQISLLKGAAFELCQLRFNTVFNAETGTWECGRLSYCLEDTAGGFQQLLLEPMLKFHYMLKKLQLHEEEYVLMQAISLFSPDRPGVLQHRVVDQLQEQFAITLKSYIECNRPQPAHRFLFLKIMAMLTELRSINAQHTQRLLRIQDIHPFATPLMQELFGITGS
# In short: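 Luminescent PXR reporter read (ONE-Glo) after a CellTiter-Fluor viability read, following 24 h, 37C treatment of HepG2 cells stably carrying hPXR-Luc.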
# [4] = target: Endonuclease 4 (Escherichia coli (strain K12)) (UniProt P0A6C1); test: Counterscreen for APE1 Inhibitors: qHTS Validation Assay for Inhibitors of Endonuclease IV (AID 1708); note: potency is the fitted concentration of half-maximal effect
# In short: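 Incision of a double-stranded 50 nM TAMRA/BHQ-2 abasic substrate was followed kinetically (525/598 nm, reads every 60 s) after 15 min enzyme–compound preincubation with 2 nM EndoIV in pH 7.5 Tris buffer with MgCl2, DTT and Tween-20; concentration-response format.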
# [5] = qHTS for differential inhibitors of proliferation of Plasmodium falciparum line 3D7 (AID 1876); note: potency is the fitted concentration of half-maximal effect
# [6] = qHTS for differential inhibitors of proliferation of Plasmodium falciparum line W2 (AID 1883); details: Potency: Plasmodium falciparum W2 proliferation inhibition;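 note: potency is the fitted concentration of half-maximal effect; parasites grown with compound for 72 h before lysis and staining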
# CP260 = test: qHTS profiling for inhibitors of Plasmodium falciparum proliferation (AID 504749); note: nearly all actives have a fitted effect of over 60% in size; details: P. falciparum in erythrocytes, SYBR Green DNA, 72 h; series mostly up to 28.7 µM
# In short: (§2)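 SYBR Green fluorescence of parasite DNA, read after lysis and overnight dark incubation, measured growth over 72 h in erythrocyte culture at 0.3% parasitemia and 2.5% hematocrit. Data normalised to DMSO and 0.29 uM artemisinin, with plate-drift correction.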
# CP265 = test: as above; details: P. falciparum in erythrocytes, SYBR Green DNA, 72 h; series mostly up to 28.7 µM
# In short: as §2
# CP315 = test: as above; details: P. falciparum in erythrocytes, SYBR Green DNA, 72 h; series mostly up to 28.7 µM
# In short: as §2
# DIV17 = test: as above; details: P. falciparum in erythrocytes, SYBR Green DNA, 72 h; series mostly up to 28.7 µM
# In short: as §2
# JCK = test: as above; details: P. falciparum in erythrocytes, SYBR Green DNA, 72 h; series mostly up to 28.7 µM
# In short: as §2
# PC15 = test: as above; details: P. falciparum in erythrocytes, SYBR Green DNA, 72 h; series mostly up to 28.7 µM
# In short: as §2
# TAB165 = test: as above; details: P. falciparum in erythrocytes, SYBR Green DNA, 72 h; series mostly up to 28.7 µM
# In short: as §2
# [7] = qHTS for differential inhibitors of proliferation of Plasmodium falciparum line 7G8 (AID 1815);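 note: potency is the fitted concentration of half-maximal effect; parasite growth measured after three days of incubation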
# [8] = qHTS for differential inhibitors of proliferation of Plasmodium falciparum line GB4 (AID 1816); details: Potency: Plasmodium falciparum GB4 proliferation inhibition; note: potency is the fitted concentration of half-maximal effect
# [9] = qHTS for differential inhibitors of proliferation of Plasmodium falciparum line D10 (AID 1877);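 note: parasites grown with compound for 72 h before DNA staining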
# [10] = qHTS for differential inhibitors of proliferation of Plasmodium falciparum line Dd2 (AID 1882); details: Potency: Plasmodium falciparum Dd2 proliferation inhibition; note: potency is the fitted concentration of half-maximal effect; nearly all actives have a fitted effect of over 65% in size
# In short: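 SYBR Green DNA fluorescence (ex 485, em 535 nm) after overnight lysis quantifies parasite growth; compound exposure lasted 72 h at 37 C on infected red cells at 2.5% hematocrit, 0.3% parasitemia (final). Artemisinin 0.29 uM and vehicle wells define normalization.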
# [11] = target: RecQ-like DNA helicase BLM (Homo sapiens) (UniProt P54132); test: qHTS Validation Assay for Inhibitors of Bloom's syndrome helicase (BLM) (AID 2364); note: potency is the fitted concentration of half-maximal effect
# Chain of UniProt P54132 (P54132 whole entry, looked up): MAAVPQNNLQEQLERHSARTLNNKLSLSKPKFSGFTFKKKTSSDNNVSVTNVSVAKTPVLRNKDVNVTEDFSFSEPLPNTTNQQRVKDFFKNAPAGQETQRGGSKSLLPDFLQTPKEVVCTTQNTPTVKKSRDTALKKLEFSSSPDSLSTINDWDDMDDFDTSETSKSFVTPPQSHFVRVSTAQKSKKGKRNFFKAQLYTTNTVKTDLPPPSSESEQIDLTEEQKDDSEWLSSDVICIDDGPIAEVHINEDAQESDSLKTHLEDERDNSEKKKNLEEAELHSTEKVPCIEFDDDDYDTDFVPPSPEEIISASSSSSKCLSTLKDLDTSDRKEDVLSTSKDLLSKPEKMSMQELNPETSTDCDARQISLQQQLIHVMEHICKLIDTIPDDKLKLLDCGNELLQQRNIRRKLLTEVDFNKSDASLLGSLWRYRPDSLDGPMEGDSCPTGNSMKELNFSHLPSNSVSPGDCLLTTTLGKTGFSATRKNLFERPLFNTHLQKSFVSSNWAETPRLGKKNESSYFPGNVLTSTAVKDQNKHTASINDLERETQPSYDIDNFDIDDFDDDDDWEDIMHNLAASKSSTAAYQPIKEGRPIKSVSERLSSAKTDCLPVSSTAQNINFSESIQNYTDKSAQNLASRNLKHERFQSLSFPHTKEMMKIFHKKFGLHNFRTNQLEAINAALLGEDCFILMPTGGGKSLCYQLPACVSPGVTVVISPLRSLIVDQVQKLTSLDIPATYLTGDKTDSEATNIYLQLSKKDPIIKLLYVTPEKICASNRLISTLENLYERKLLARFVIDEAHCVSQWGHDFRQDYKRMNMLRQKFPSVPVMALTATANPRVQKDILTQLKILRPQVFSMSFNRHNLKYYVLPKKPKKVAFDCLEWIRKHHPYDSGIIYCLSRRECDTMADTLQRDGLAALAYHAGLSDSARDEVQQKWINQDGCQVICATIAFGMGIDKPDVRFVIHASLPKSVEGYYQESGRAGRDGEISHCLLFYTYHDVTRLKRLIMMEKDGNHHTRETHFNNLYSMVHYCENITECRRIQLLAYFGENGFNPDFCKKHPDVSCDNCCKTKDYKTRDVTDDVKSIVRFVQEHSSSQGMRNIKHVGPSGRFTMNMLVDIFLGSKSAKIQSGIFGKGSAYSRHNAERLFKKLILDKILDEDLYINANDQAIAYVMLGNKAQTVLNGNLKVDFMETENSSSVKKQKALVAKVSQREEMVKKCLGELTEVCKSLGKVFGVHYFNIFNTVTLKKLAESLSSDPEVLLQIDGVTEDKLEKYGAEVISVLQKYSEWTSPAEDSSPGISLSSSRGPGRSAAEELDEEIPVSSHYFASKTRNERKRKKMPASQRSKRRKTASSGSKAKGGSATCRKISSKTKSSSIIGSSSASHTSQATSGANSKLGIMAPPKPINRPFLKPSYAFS
# In short: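 Forked 20-bp duplex substrate (200 nM, TAMRA/BHQ-2) plus 2 mM ATP added after 15 min compound preincubation with 50 nM enzyme, pH 8.0, poly(dI-dC) 2.5 ug/ml. Strand separation followed by fluorescence (525/598 nm) over 2 h, normalized to enzyme-free and DMSO controls.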
# [12] = target: Transient receptor potential cation channel subfamily V member 1 (Homo sapiens) (UniProt Q8NER1); test: HTS Assay for Compounds that Act as Enhancers of the Vanilloid Receptor 1 (AID 488979)
# Chain of UniProt Q8NER1 (Q8NER1 whole entry, looked up): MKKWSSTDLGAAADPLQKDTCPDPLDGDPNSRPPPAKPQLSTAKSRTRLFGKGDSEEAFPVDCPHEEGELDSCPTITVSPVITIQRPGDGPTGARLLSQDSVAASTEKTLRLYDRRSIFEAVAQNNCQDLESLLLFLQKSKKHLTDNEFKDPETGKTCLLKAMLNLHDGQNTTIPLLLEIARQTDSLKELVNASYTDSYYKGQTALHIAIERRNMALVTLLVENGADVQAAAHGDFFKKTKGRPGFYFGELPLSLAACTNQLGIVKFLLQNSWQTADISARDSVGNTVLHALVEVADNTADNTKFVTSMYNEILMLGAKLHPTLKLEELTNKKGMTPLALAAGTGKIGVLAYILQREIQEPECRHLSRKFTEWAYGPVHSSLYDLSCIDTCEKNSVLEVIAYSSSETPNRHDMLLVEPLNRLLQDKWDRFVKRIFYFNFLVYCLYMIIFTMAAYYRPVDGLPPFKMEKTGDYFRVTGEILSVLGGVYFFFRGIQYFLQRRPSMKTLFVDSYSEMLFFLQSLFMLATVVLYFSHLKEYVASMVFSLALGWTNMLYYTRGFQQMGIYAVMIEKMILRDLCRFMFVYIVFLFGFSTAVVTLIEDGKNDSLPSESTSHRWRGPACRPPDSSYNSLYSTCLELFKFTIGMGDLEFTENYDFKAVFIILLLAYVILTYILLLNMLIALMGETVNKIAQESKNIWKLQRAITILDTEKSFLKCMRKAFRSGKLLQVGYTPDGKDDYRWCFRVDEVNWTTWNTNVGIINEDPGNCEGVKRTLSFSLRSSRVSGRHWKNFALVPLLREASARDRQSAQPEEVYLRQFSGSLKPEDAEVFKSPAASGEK
# In short: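 Calcium influx kinetics via Fluo-8 (480/520 nm) in TRPV1-expressing cells, 2000/well cultured overnight at 35.5C. Compound-alone read 3 min (agonist phase), followed by EC20 capsaicin challenge for 2 min (enhancer phase).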
# [13] = qHTS for differential inhibitors of proliferation of Plasmodium falciparum line HB3 (AID 1886); details: Potency: Plasmodium falciparum HB3 proliferation inhibition;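 note: potency is the fitted concentration of half-maximal effect; parasites grown with compound for 72 h before SYBR Green readout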
# [14] = qHTS Assay for Modulators of Human Peripheral Myelin Protein 22 (PMP22) Expression/Activity (AID 1967; active = well fitted curve in the direction sought with a large enough effect in the signal ratio; inconclusive = small, poorly fitted or top-dose-only effect, or effect the other way, or a change in a side signal; inactive = no such curve, though single readings can be large or run the other way; the % refers to the signal ratio; note: potency is the fitted concentration of half-maximal effect); details: Cell-based PMP22 reporter, dual-color luciferase ratio, mouse Pmp22 promoter in mouse Schwann cells; series mostly up to 115 µM
# In short: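 Engineered MSC80 cells, Pmp22-promoter green and EF-alpha red luciferase reporters; 24h compound treatment at 37 °C. Concentration-response fits on green, red and ratio signals, each overlap-corrected, with %Activity normalized to untreated wells.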
# [15] = Validation screen for small molecules that induce DNA re-replication in MCF 10A normal breast cells (AID 463097); note: potency is the fitted concentration of half-maximal effect; nearly all actives have a fitted effect of over 60% in size
# In short: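 Following 48 hr compound incubation (37 C, 5% CO2), MCF 10A cells receive Hoechst for 40 min at 37 C. Nuclei are then scanned (excitation 405 nm, emission 500-530 nm) for total fluorescence intensity.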
# [16] = Validation screen for small molecules that induce DNA re-replication in SW480 colon adenocarcinoma cells (AID 504364); note: potency is the fitted concentration of half-maximal effect
# In short: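 Image-based DNA content read-out: Hoechst stain 40 min, total nuclear fluorescence intensity (ex 405 nm, em 500-530 nm) after 48 h compound exposure of 250 SW480 cells/well at 37 C, 5% CO2, versus DMSO vehicle.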
# [17] = S16 Schwann cell PMP22 intronic element firefly luciferase assay (AID 624032); note: potency is the fitted concentration of half-maximal effect; nearly all actives have a fitted effect of over 30% in size
# In short: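 Luciferase reporter of PMP22 intronic-element expression in stably transfected S16 rat Schwann cells, read by ONE-Glo luminescence after 24 h compound exposure at 37 C. Activity scaled between DMSO (0%) and positive-control PTC124; concentration-effect curves quality-classified.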
# [18] = target: Nuclear receptor subfamily 1 group I member 3 (Homo sapiens) (UniProt Q14994); test: Primary qHTS for agonist of constitutive androstane receptor (CAR) against the NCATS DSHEA and TCM libraries (AID 1794839); details: Potency: CAR antagonist co-added at 0.75 µM unless noted;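 note: HepG2 cells expressing human CAR with a CYP2B6 reporter plus PK11195 antagonist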
# In short: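 Concentration–response screen in HepG2-CYP2B6-hCAR cells under 0.75 µM PK11195; 24 h exposure; luminescent reporter signal with multiplexed fluorescent viability.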
# [19] = target: Cytochrome P450 3A4 (Homo sapiens) (UniProt P08684); test: qHTS for inhibitors of CYP3A4 against the NCATS DSHEA and TCM libraries (AID 1919971); note: potency is the fitted concentration of half-maximal effect
# Chain of UniProt P08684 (P08684 whole entry, looked up): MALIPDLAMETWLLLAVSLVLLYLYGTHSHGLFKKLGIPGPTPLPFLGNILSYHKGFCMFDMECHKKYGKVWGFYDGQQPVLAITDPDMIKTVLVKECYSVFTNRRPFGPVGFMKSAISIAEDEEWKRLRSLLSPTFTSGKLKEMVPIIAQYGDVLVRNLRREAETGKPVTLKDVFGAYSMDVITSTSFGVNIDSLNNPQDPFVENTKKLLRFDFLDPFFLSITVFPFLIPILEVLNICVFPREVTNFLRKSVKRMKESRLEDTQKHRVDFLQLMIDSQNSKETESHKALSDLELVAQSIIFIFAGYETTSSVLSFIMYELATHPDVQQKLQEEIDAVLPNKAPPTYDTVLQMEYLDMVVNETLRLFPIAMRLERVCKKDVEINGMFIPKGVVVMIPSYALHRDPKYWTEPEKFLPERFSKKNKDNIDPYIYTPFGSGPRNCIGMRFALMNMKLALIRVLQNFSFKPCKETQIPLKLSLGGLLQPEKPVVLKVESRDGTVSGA
# In short: as §1
# [20] = target: Cytochrome P450 2C9 (Homo sapiens) (UniProt P11712); test: qHTS for inhibitors of CYP2C9 against the NCATS DSHEA and TCM libraries (AID 1919973); note: potency is the fitted concentration of half-maximal effect
# Chain of UniProt P11712 (P11712 whole entry, looked up): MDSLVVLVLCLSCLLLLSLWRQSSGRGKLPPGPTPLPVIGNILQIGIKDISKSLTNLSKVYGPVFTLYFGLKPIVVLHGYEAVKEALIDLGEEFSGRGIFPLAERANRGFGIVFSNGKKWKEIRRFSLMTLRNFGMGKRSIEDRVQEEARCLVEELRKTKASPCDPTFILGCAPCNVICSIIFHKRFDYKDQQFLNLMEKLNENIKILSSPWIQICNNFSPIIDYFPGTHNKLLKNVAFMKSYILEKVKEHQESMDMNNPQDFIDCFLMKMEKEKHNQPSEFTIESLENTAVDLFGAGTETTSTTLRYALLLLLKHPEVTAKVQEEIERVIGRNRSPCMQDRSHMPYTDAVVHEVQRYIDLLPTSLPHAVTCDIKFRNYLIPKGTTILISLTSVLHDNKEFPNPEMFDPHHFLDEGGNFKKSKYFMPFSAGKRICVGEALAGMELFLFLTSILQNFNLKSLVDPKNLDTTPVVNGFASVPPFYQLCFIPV
# In short: as §1
# Tags give direction and shape of the fitted curve.
smiles,measurement,setting,value
C=C[C@H]1CN2CC[C@@]3(C(=O)Nc4ccccc43)[C@@H]2C[C@@H]1/C(=C\OC)C(=O)OC,Potency,[1],active: 3.98 µM
same,Potency,[2],"inconclusive: 22.4 µM [inhibitor, partial curve]"
same,Potency,[3],"inconclusive: 10 µM [activator, full curve]"
CCCC[N+]1(C)C2CC(OC(=O)C(CO)c3ccccc3)CC1C1OC12 (configuration not stated),Potency,[4],inactive
same,Potency,[5],"inconclusive: 10 µM [inhibitor, single point]"
same,Potency,[6],"inconclusive: 14.1 µM [inhibitor, partial curve, poor fit]"
same,Potency,CP260,inactive
same,Potency,CP265,inactive
same,Potency,CP315,inactive
same,Potency,DIV17,inactive
same,Potency,JCK,inactive
same,Potency,PC15,inactive
same,Potency,TAB165,inactive
COc1ccc2c3c1O[C@H]1C(=O)CC[C@@]4(O)C(C2)N(CC2CC2)CCC314 (some centres not stated),Potency,[7],"inconclusive: 7.08 µM [inhibitor, partial curve]"
same,Potency,[8],"inconclusive: 14.1 µM [inhibitor, partial curve]"
same,Potency,[9],inactive
same,Potency,[10],"inconclusive: 11.2 µM [inhibitor, partial curve, poor fit]"
same,Potency,[11],"inconclusive: 0.0028 µM [inhibitor, full curve, poor fit]"
same,Potency,[12],inactive
CC(C)C[C@H]1C(=O)N2CCCC2[C@]2(O)O[C@](NC(=O)[C@@H]3C=C4c5cccc6[nH]c(Br)c(c56)C[C@H]4N(C)C3)(C(C)C)C(=O)N12 (some centres not stated),Potency,[4],"inconclusive: 2.51 µM [inhibitor, full curve, poor fit]"
same,Potency,[10],active: 2 µM
same,Potency,[13],active: 1.58 µM
same,Potency,[14],"inconclusive: 67.5 µM [inhibitor, partial curve]"
same,Potency,[11],"inconclusive: 17.8 µM [inhibitor, partial curve]"
same,Potency,[15],"inconclusive: 7.08 µM [activator, partial curve]"
same,Potency,[16],"inconclusive: 16.4 µM [activator, single point]"
same,Potency,[17],active: 8.09 µM
CC[C@@H]1CN2CC[C@]3(C(=O)Nc4ccccc43)[C@@H]2C[C@@H]1/C(=C\OC)C(=O)OC,Potency,[1],active: 3.98 µM
same,Potency,[18],inactive
same,Potency,[19],"inconclusive: 12.6 µM [inhibitor, partial curve]"
same,Potency,[20],"inconclusive: 25.1 µM [inhibitor, partial curve]"
same,Potency,[3],"inconclusive: 11.2 µM [activator, partial curve, poor fit]"

# From PubChem BioAssay (NCATS)
